{"source": "the RNAGym collection of RNA variant scans (doi:10.7554/elife.90254)", "parents": {"B1": {"name": "LINE1-mini (parent)", "chain": "GGCAGAGCUCAACACAGCGUGGCAAAGUGGCUGUGGCUAGACUGCC"}}, "note": "Read counts are not given, so values of variants with three or more changes are uncertain."}
{"variants_of": "B1", "test": "self-cleavage, relative activity (ratio to wild type); higher = more cleavage; in vitro, sequencing; the parent is a self-cleaving ribozyme"}
{"variant": "A4C G7A C23U G29U G30U G35A G44U", "self-cleavage": 0.39}
{"variant": "U20C U28C G30A A41U", "self-cleavage": 0.41}
{"variant": "C10A A12C A25C G36C C46U", "self-cleavage": 0}
{"variant": "C10A G19A C31G", "self-cleavage": 0.03}
{"variant": "G7U C31G U34A C37U U43A", "self-cleavage": 0.01}
{"variant": "G5U A6C A24C U34G C46G", "self-cleavage": 0.03}
{"variant": "G7C C10G A14C U34G G44U", "self-cleavage": 0}
{"variant": "G1C C10A G27C C45U", "self-cleavage": 0.02}
{"variant": "C3G U20G G40C", "self-cleavage": 0.05}
{"variant": "C15U G27C U34A G40U U43G C45G", "self-cleavage": 0.02}
{"variant": "G2A G7C A24C", "self-cleavage": 0.42}
{"variant": "U9C C15G G17A G21A A41U", "self-cleavage": 0.02}
{"variant": "C3G A16G G21U C31A G36A C46G", "self-cleavage": 0}
{"variant": "G7C C13A G19U A26U G40U U43G", "self-cleavage": 0.04}
{"variant": "A6U A41U U43G C46A", "self-cleavage": 0.91}
{"variant": "C15A A26C U34G", "self-cleavage": 0.03}
{"variant": "G1C G19U C46A", "self-cleavage": 0.16}
{"variant": "C13A U20C G30U G33C", "self-cleavage": 0.17}
{"variant": "C3G A16U A24U", "self-cleavage": 0.08}
{"variant": "C3A G17U U38A C42A C46U", "self-cleavage": 0.08}
{"variant": "C15G G33A U38G", "self-cleavage": 0.01}
{"variant": "C23A A26G G27A G35A U43A", "self-cleavage": 0.03}
{"variant": "A6G A11C G17U G33A U34A", "self-cleavage": 0.01}
{"variant": "G1C A6G A11U A12G A14G", "self-cleavage": 0}
{"variant": "G1U G29U A41U", "self-cleavage": 0.2}
{"variant": "C8A C18A U20A G29A G40C", "self-cleavage": 0.23}
{"variant": "G5A C10A A12G C23U C42G", "self-cleavage": 0}
{"variant": "U20C U28A G30C", "self-cleavage": 1.09}
{"variant": "C10U A11G C31U U32C", "self-cleavage": 0.03}
{"variant": "A6C U28C C45G", "self-cleavage": 0.14}
{"variant": "C13U G17A U28G A41U", "self-cleavage": 0.16}
{"variant": "G1U C10A G21U G22U A25C U38A", "self-cleavage": 0.04}
{"variant": "A26U G30C G33C", "self-cleavage": 0.29}
{"variant": "A26U G33U G40C", "self-cleavage": 0.02}
{"variant": "G5C A6G A11G U20A G22U C45A", "self-cleavage": 0.01}
{"variant": "C10G G19U G29A G44C", "self-cleavage": 0.07}
{"variant": "G2U C8G A25C", "self-cleavage": 0.03}
{"variant": "A6C G30C G35U G36C U38A", "self-cleavage": 0.02}
{"variant": "C13U G30A G33C", "self-cleavage": 0.03}
{"variant": "A11U G27A G29U", "self-cleavage": 0.17}
{"variant": "A4C G30U U34G A41C C45G", "self-cleavage": 0.11}
{"variant": "A12U G27A G44C C46A", "self-cleavage": 0.11}
{"variant": "U32A G36A A41C", "self-cleavage": 0.08}
{"variant": "G29U G40U C46U", "self-cleavage": 0.11}
{"variant": "U9C G27A C42A", "self-cleavage": 0.09}
{"variant": "A6C G19C G33A", "self-cleavage": 0.1}
{"variant": "C15A A24G G44A", "self-cleavage": 0.14}
{"variant": "A4G C18U G21A G35A G36C", "self-cleavage": 0.18}
{"variant": "A12C G17U C18A", "self-cleavage": 0.01}
{"variant": "G5U G7C A14U U28C C31A G44C C45U", "self-cleavage": 0.05}
{"variant": "C15U A25C C31A G40U", "self-cleavage": 0.05}
{"variant": "G17U A25G G30A", "self-cleavage": 0.16}
{"variant": "G1U A14G G17A C45A", "self-cleavage": 0.1}
{"variant": "A14C G29A G40U", "self-cleavage": 0.21}
{"variant": "G1U G27U A39U", "self-cleavage": 0.14}
{"variant": "A12G G17A A25G C37G C46A", "self-cleavage": 0.01}
{"variant": "G7C U9A G21A C31A G33A A39C C42U", "self-cleavage": 0.09}
{"variant": "C10U C15G A16U G33U", "self-cleavage": 0.02}
{"variant": "C8G U9C A39U", "self-cleavage": 0.03}
{"variant": "A16G A26G G27C G35C U43A", "self-cleavage": 0.01}
{"variant": "G1U G22A A24G U28G", "self-cleavage": 0.5}
{"variant": "G1C A4U G21C A24U", "self-cleavage": 0.02}
{"variant": "G17A G21U G36C C42G", "self-cleavage": 0.01}
{"variant": "C15U G29C C42G C46G", "self-cleavage": 0.02}
{"variant": "C10A A12C C31U", "self-cleavage": 0.02}
{"variant": "C18U G19U U28C", "self-cleavage": 0.98}
{"variant": "A4G A6U U43A C45A", "self-cleavage": 0.09}
{"variant": "G2C C13G G33U U38C", "self-cleavage": 0.08}
{"variant": "G5A A6U C8G G30U G40A", "self-cleavage": 0.27}
{"variant": "G2C C8G C18U", "self-cleavage": 0.04}
{"variant": "G19C G22U G29C C31U G40U", "self-cleavage": 0.04}
{"variant": "A6U A11G A12U U28A U34C", "self-cleavage": 0.02}
{"variant": "G2C A6C C18G", "self-cleavage": 0}
{"variant": "A4U U9A G21A A26U C31U G40U C45G", "self-cleavage": 0.01}
{"variant": "G19C C37U G44C", "self-cleavage": 0.02}
{"variant": "G1A G5C G7U U38G G44U", "self-cleavage": 0.03}
{"variant": "A4G C8U A25U G44U", "self-cleavage": 0.06}
{"variant": "U34G U38A G40U", "self-cleavage": 0.04}
{"variant": "A14G G30C C42A", "self-cleavage": 0.01}
{"variant": "G5C C15G U32A", "self-cleavage": 0.03}
{"variant": "G30C U34G G40U", "self-cleavage": 0.06}
{"variant": "G17U G22U U34G", "self-cleavage": 0.04}
{"variant": "C10U C15G A26G G27U", "self-cleavage": 0.07}
